In PubChem BioAssay AID1508649 (National Center for Advancing Translational Sciences (NCATS), 2021):
Screen size: about 43,000 compounds; about 830 (1.9%) were called active. The shares of active, inactive and inconclusive entries below differ from those in the screen. Rule for the calls: active = clear falling dose curves in both reporters; inconclusive = both reporters move, but less clearly or upward; inactive = either reporter flat; the % is the NLuc reporter signal. No potency is given beside an inconclusive call; the fits are too rough.

Experiment: Cell-based coincidence reporter assay to measure PMP22 gene transcription in S16 Pmp22-F2sN cells - Primary screen
Conditions: S16 Pmp22-F2sN Schwann cells (luciferase reporters placed in the Pmp22 gene), FLuc/NLuc coincidence luminescence, 24 h; measured here: NLuc reporter readout, at 57.5 µM (top of the series)
Outline: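 Luminescent read-out of sequential FLuc and NLuc signals from a reporter embedded in the Pmp22 3' UTR of S16 Schwann cells, taken after 24 h compound exposure at 37C; compounds reducing both signals score as inhibitors of expression.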
Potency is the fitted concentration of half-maximal effect; tags give direction and shape of the fitted curve.

| SMILES | Potency |
| --- | --- |
| CC(=O)c1ccc(N2CCN(C(=O)CCCCn3c(=O)[nH]c4ccccc4c3=O)CC2)cc1 | inconclusive [phenotype inactive, single point] |
| Cc1cc(C)cc(NC(=O)CCCn2c3ccccc3c(=O)c3ccccc32)c1 | inconclusive [phenotype inactive, partial curve] |
| CCOc1ccc(CCNC(=O)c2sc3ncccc3c2-n2cccc2)cc1OCC | inconclusive [phenotype inactive, single point] |
| O=C(CCC1N=C2c3ccccc3N=C(SCc3cccc(F)c3)N2C1=O)NCc1cccs1 (stereo not given) | inconclusive [phenotype inactive, single point] |
| Cc1ccc(-c2cn(-c3cccc(Cl)c3)c(S(=O)(=O)CC(=O)Nc3cccc(C)c3)n2)cc1 | inconclusive [phenotype inactive, single point] |
| CCOC(=O)c1ccc(N2C(=O)c3n[nH]c(C)c3C2c2ccc(OCC)cc2)cc1 (stereo not given) | inconclusive [phenotype inactive, single point] |
| CCc1ccc(C2CC(=O)c3c([nH]c(C(=O)OCCOc4ccccc4)c3C)C2)cc1 (stereo not given) | active: 15 µM |
| COc1ccc(Nc2cc(C)nc3c(C)c(C)ccc23)cc1 | active: 14.2 µM |
| COc1cc(OC)c(NC(=O)N2CCc3cc(OC)c(OC)cc3C2CC(=O)O)cc1Cl (stereo not given) | inconclusive [phenotype inactive, single point] |
| Cc1cccc(NC(=O)c2ccc(F)c(S(=O)(=O)N3CCC4(CC3)OCCO4)c2)c1 | inconclusive [phenotype inactive, partial curve, poor fit] |
| COc1ccc(NC(=O)Cn2c(=O)n(CCCC(=O)NCCc3ccc(C)cc3)c(=O)c3ccccc32)cc1Cl | inconclusive [phenotype inactive, single point] |
| COC(=O)C(NC(=O)CCc1c(C)nc2c(c(C)nn2-c2ccccc2)c1C)C(C)C (stereo not given) | inactive |
| Cc1[nH]c2ccccc2c1C1(O)C(=O)N(Cc2ccccc2Cl)c2ccccc21 (stereo not given) | inconclusive [phenotype inactive, partial curve] |
| COc1cc(NS(=O)(=O)c2ccc3c(c2)CCN3S(C)(=O)=O)cc(OC)c1 | inconclusive [phenotype inactive, partial curve, poor fit] |
| COCCCNC(=O)c1oc2c(c1C)-c1nn(Cc3cccc(Cl)c3)cc1CC2 | inconclusive [phenotype inactive, partial curve] |
